{
  "source": "the supplement of paper PMC8728848",
  "test_in_all_cases": "glycan array binding signal (z-score within array); higher = stronger binding",
  "details_in_all_cases": "glycan notation: IUPAC condensed, linker removed",
  "key": {"[1]": {"molecular_target": "Gal(b1-4)GlcNAc(b1-3)Gal(b1-4)Glc", "method_in_brief": "(§1)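 Glycan array data came from 3228 arrays in the Consortium for Functional Glycomics database, and only arrays with an available protein sequence were kept. Glycan names were put into IUPAC-condensed notation, and columns mapping to the same glycan were averaged. The binding signal is a within-array Z-score, averaged across arrays of one protein sequence run at different concentrations or buffers and across linkers. A negative Z-score can be read as non-binding.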"}, "[2]": {"molecular_target": "Gal(b1-4)GlcNAc(b1-3)Gal(b1-4)GlcNAc", "method_in_brief": "as §1"}, "[3]": {"molecular_target": "Gal(b1-4)GlcNAc(b1-3)Gal(b1-4)GlcNAc(b1-3)Gal(b1-4)GlcNAc", "method_in_brief": "as §1"}, "[4]": {"molecular_target": "Gal(b1-4)GlcNAc(b1-3)Gal(b1-4)[Fuc(a1-3)GlcNAc(b1-6)]Gal(b1-4)Glc", "method_in_brief": "as §1"}, "[5]": {"molecular_target": "Gal(b1-4)GlcNAc(b1-3)Gal(b1-4)[Fuc(a1-3)]GlcNAc(b1-3)Gal(b1-4)[Fuc(a1-3)]GlcNAc", "method_in_brief": "as §1"}, "[6]": {"molecular_target": "Gal(b1-4)GlcNAc(b1-3)GalNAc", "method_in_brief": "as §1"}, "[7]": {"molecular_target": "Gal(b1-4)GlcNAc(b1-3)[Gal(b1-4)GlcNAc(b1-6)]Gal(b1-4)GlcNAc", "method_in_brief": "as §1"}, "[8]": {"molecular_target": "Gal(b1-4)GlcNAc(b1-3)[Gal(b1-4)GlcNAc(b1-6)]GalNAc", "method_in_brief": "as §1"}, "[9]": {"molecular_target": "Gal(b1-4)GlcNAc(b1-3)[GlcNAc(b1-6)]Gal(b1-4)GlcNAc", "method_in_brief": "as §1"}, "[10]": {"molecular_target": "Gal(b1-4)GlcNAc(b1-6)Gal(b1-4)GlcNAc", "method_in_brief": "as §1"}, "[11]": {"molecular_target": "Gal(b1-4)GlcNAc(b1-6)GalNAc", "method_in_brief": "as §1"}, "[12]": {"molecular_target": "Gal(b1-4)GlcNAc(b1-6)[Gal(b1-3)]GalNAc", "method_in_brief": "as §1"}, "Gal(b1-4)GlcNAc6P": {"molecular_target": "Gal(b1-4)GlcNAc6P", "method_in_brief": "as §1"}, "Gal(b1-6)Gal": {"molecular_target": "Gal(b1-6)Gal", "method_in_brief": "as §1"}, "Gal3S(b1-3)GalNAc": {"molecular_target": "Gal3S(b1-3)GalNAc", "method_in_brief": "as §1"}, "Gal3S(b1-3)GlcNAc": {"molecular_target": "Gal3S(b1-3)GlcNAc", "method_in_brief": "as §1"}, "[13]": {"molecular_target": "Gal3S(b1-3)[Fuc(a1-4)]GlcNAc", "method_in_brief": "as §1"}, "Gal3S(b1-4)Glc": {"molecular_target": "Gal3S(b1-4)Glc", "method_in_brief": "as §1"}, "Gal3S(b1-4)Glc6S": {"molecular_target": "Gal3S(b1-4)Glc6S", "method_in_brief": "as §1"}, "Gal3S(b1-4)GlcNAc": {"molecular_target": "Gal3S(b1-4)GlcNAc", "method_in_brief": "as §1"}, "Gal3S(b1-4)GlcNAc6S": {"molecular_target": "Gal3S(b1-4)GlcNAc6S", "method_in_brief": "as §1"}, "[14]": {"molecular_target": "Gal3S(b1-4)[Fuc(a1-3)]Glc", "method_in_brief": "as §1"}, "[15]": {"molecular_target": "Gal3S(b1-4)[Fuc(a1-3)]Glc6S", "method_in_brief": "as §1"}, "Gal3S4S(b1-4)GlcNAc": {"molecular_target": "Gal3S4S(b1-4)GlcNAc", "method_in_brief": "as §1"}, "Gal3S6S(b1-4)GlcNAc": {"molecular_target": "Gal3S6S(b1-4)GlcNAc", "method_in_brief": "as §1"}, "Gal3S6S(b1-4)GlcNAc6S": {"molecular_target": "Gal3S6S(b1-4)GlcNAc6S", "method_in_brief": "as §1"}, "Gal4S(b1-4)GlcNAc": {"molecular_target": "Gal4S(b1-4)GlcNAc", "method_in_brief": "as §1"}, "Gal4S6S(b1-4)GlcNAc": {"molecular_target": "Gal4S6S(b1-4)GlcNAc", "method_in_brief": "as §1"}, "Gal6P(b1-4)GlcNAc": {"molecular_target": "Gal6P(b1-4)GlcNAc", "method_in_brief": "as §1"}, "Gal6S(b1-3)GlcNAc": {"molecular_target": "Gal6S(b1-3)GlcNAc", "method_in_brief": "as §1"}, "Gal6S(b1-3)GlcNAc6S": {"molecular_target": "Gal6S(b1-3)GlcNAc6S", "method_in_brief": "as §1"}, "Gal6S(b1-4)Glc": {"molecular_target": "Gal6S(b1-4)Glc", "method_in_brief": "as §1"}, "Gal6S(b1-4)Glc6S": {"molecular_target": "Gal6S(b1-4)Glc6S", "method_in_brief": "as §1"}, "Gal6S(b1-4)GlcNAc": {"molecular_target": "Gal6S(b1-4)GlcNAc", "method_in_brief": "as §1"}, "Gal6S(b1-4)GlcNAc6S": {"molecular_target": "Gal6S(b1-4)GlcNAc6S", "method_in_brief": "as §1"}, "GalNAc(a1-3)Gal": {"molecular_target": "GalNAc(a1-3)Gal", "method_in_brief": "as §1"}, "GalNAc(a1-3)GalNAc": {"molecular_target": "GalNAc(a1-3)GalNAc", "method_in_brief": "as §1"}, "[16]": {"molecular_target": "GalNAc(a1-3)GalNAc(b1-3)Gal(a1-4)Gal(b1-4)Glc", "method_in_brief": "as §1"}},
  "note": "This is one part of the list.",
  "data": [
    {"binder": "Strep tagII-anxA1 (Homo sapiens), P04083 (protein) MAMVSEFLKQAWFIENEEQEYVQTVKSSKGGPGSAVSPYPTFNPSSDVAALHKAIMVKGVDEATIIDILTKRNNAQRQQIKAAYLQETGKPLDETLKKALTGHLEEVVLALLKTPAQFDADELRAAMKGLGTDEDTLIEILASRTNKEIRDINRVYREELKRDLAKDITSDTSGDFRNALLSLAKGDRSEDFGVNEDLADSDARALYEAGERRKGTDVNVFNTILTTRSYPQLRRVFQKYTKYSKHDMNKVLDLELKGDIEKCLTAIVKCATSKPAFFAEKLHQAMKGVGTRHKALIRIMVSRSEIDMNDIKAFYQKMYGISLCQAILDETKGDYEKILVALCGGN", "values": [
      {"measurement": "glycan array binding signal (z-score)", "setting": "[1]", "result": -0.737},
      {"measurement": "glycan array binding signal (z-score)", "setting": "[2]", "result": -0.748},
      {"measurement": "glycan array binding signal (z-score)", "setting": "[3]", "result": -0.696},
      {"measurement": "glycan array binding signal (z-score)", "setting": "[4]", "result": -0.754},
      {"measurement": "glycan array binding signal (z-score)", "setting": "[5]", "result": -0.493},
      {"measurement": "glycan array binding signal (z-score)", "setting": "[6]", "result": -0.387},
      {"measurement": "glycan array binding signal (z-score)", "setting": "[7]", "result": -0.59},
      {"measurement": "glycan array binding signal (z-score)", "setting": "[8]", "result": -0.015},
      {"measurement": "glycan array binding signal (z-score)", "setting": "[9]", "result": -0.399},
      {"measurement": "glycan array binding signal (z-score)", "setting": "[10]", "result": -0.597},
      {"measurement": "glycan array binding signal (z-score)", "setting": "[11]", "result": -0.511},
      {"measurement": "glycan array binding signal (z-score)", "setting": "[12]", "result": -0.556},
      {"measurement": "glycan array binding signal (z-score)", "setting": "Gal(b1-4)GlcNAc6P", "result": -0.618},
      {"measurement": "glycan array binding signal (z-score)", "setting": "Gal(b1-6)Gal", "result": -0.735},
      {"measurement": "glycan array binding signal (z-score)", "setting": "Gal3S(b1-3)GalNAc", "result": -0.412},
      {"measurement": "glycan array binding signal (z-score)", "setting": "Gal3S(b1-3)GlcNAc", "result": -0.002},
      {"measurement": "glycan array binding signal (z-score)", "setting": "[13]", "result": -0.165},
      {"measurement": "glycan array binding signal (z-score)", "setting": "Gal3S(b1-4)Glc", "result": 0.607},
      {"measurement": "glycan array binding signal (z-score)", "setting": "Gal3S(b1-4)Glc6S", "result": -0.613},
      {"measurement": "glycan array binding signal (z-score)", "setting": "Gal3S(b1-4)GlcNAc", "result": 2.08},
      {"measurement": "glycan array binding signal (z-score)", "setting": "Gal3S(b1-4)GlcNAc6S", "result": -0.345},
      {"measurement": "glycan array binding signal (z-score)", "setting": "[14]", "result": 1.09},
      {"measurement": "glycan array binding signal (z-score)", "setting": "[15]", "result": 0.105},
      {"measurement": "glycan array binding signal (z-score)", "setting": "Gal3S4S(b1-4)GlcNAc", "result": 0.589},
      {"measurement": "glycan array binding signal (z-score)", "setting": "Gal3S6S(b1-4)GlcNAc", "result": 0.386},
      {"measurement": "glycan array binding signal (z-score)", "setting": "Gal3S6S(b1-4)GlcNAc6S", "result": -0.647},
      {"measurement": "glycan array binding signal (z-score)", "setting": "Gal4S(b1-4)GlcNAc", "result": -0.285},
      {"measurement": "glycan array binding signal (z-score)", "setting": "Gal4S6S(b1-4)GlcNAc", "result": -0.739},
      {"measurement": "glycan array binding signal (z-score)", "setting": "Gal6P(b1-4)GlcNAc", "result": -0.017},
      {"measurement": "glycan array binding signal (z-score)", "setting": "Gal6S(b1-3)GlcNAc", "result": -0.459},
      {"measurement": "glycan array binding signal (z-score)", "setting": "Gal6S(b1-3)GlcNAc6S", "result": -0.025},
      {"measurement": "glycan array binding signal (z-score)", "setting": "Gal6S(b1-4)Glc", "result": -0.239},
      {"measurement": "glycan array binding signal (z-score)", "setting": "Gal6S(b1-4)Glc6S", "result": 0.09},
      {"measurement": "glycan array binding signal (z-score)", "setting": "Gal6S(b1-4)GlcNAc", "result": -0.428},
      {"measurement": "glycan array binding signal (z-score)", "setting": "Gal6S(b1-4)GlcNAc6S", "result": 0.918},
      {"measurement": "glycan array binding signal (z-score)", "setting": "GalNAc(a1-3)Gal", "result": 0.67},
      {"measurement": "glycan array binding signal (z-score)", "setting": "GalNAc(a1-3)GalNAc", "result": -0.167},
      {"measurement": "glycan array binding signal (z-score)", "setting": "[16]", "result": -0.765}
    ]}
  ]
}
